Measured values taken from the supplement of paper PMC3334620.
The full ranking holds about 33,000 sequences; the median of “E-score (-0.5 to 0.5)” is about -0.054, and the highest 2% start at about 0.35. Some of the results follow.

Each sequence was assayed against T1, Stb5 (UniProt P38699) (assay: PBM E-score (8-mer binding enrichment) (E-score (-0.5 to 0.5)); higher = stronger / more preferred TF binding; most listed sequences are background and not binding sites). Settings: protein concentration: 200 nM; construct: GST-full length.
T1 sequence: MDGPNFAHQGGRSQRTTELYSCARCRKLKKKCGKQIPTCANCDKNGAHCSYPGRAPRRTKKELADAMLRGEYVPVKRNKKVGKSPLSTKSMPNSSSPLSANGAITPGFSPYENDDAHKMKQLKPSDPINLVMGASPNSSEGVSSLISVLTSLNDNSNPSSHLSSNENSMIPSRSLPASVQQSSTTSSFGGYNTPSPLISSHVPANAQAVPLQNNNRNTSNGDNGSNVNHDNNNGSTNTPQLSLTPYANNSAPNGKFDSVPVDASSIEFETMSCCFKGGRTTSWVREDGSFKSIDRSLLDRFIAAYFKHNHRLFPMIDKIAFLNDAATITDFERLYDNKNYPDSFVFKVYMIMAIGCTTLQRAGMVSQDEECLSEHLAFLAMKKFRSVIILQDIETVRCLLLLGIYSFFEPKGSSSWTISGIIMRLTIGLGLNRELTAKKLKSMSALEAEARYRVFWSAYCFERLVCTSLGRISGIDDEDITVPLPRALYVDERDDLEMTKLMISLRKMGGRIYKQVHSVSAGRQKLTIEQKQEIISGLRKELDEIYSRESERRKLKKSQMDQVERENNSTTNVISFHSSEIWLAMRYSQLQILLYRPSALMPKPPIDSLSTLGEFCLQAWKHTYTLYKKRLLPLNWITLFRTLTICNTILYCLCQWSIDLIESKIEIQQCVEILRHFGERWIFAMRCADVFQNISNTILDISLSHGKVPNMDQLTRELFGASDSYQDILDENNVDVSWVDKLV
In short: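 Masliner-normalised scans of fluorescent anti-GST signal were the basis for scoring. That signal came from GST-tagged yeast transcription factors applied at about 100-200 nM to double-stranded universal all-10-mer Agilent arrays on fresh or once-stripped slides. Each ungapped eight-base word, pooled with its reverse complement, received an E-score from the Universal PBM Analysis Suite.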

| Sequence | PBM E-score |
| --- | --- |
| AAGCCTTA | -0.139 |
| AGGGTAGG | -0.206 |
| AGTGGTTA | -0.171 |
| CCATACGC | -0.287 |
| GGCTCTTA | 0.0283 |
| CATATGCG | 0.0886 |
| AACCTCAA | -0.181 |
| ATTTACCG | 0.332 |
| GTCCGGTA | 0.235 |
| CGTATTTC | 0.0937 |
| GATTCGAC | -0.237 |
| ATGGATCC | 0.166 |
| TCGGAAGA | 0.142 |
| ATGGGGTA | 0.0556 |
| CGAGGACG | 0.109 |
| GTACCAAA | -0.149 |
| GGGTTGTA | 0.00458 |
| TGCGCGAA | 0.00948 |
| TCCATCGA | -0.123 |
| GGTAGAGA | -0.196 |
| AAATCGCG | -0.0128 |
| TCTACTAA | -0.173 |
| CAATACCA | -0.0726 |

| Sequence | PBM E-score |
| --- | --- |
| GCGCGCAC | 0.11 |
| CGGTGACG | 0.237 |
| CTCATCTC | -0.138 |
| ATAACTAT | -0.141 |
| TACTAATA | -0.0152 |
| GGCATGAC | 0.0892 |
| AATGCGTG | -0.247 |
| AATCCGGA | 0.248 |
| CGCCTCAA | 0.00114 |
| CACTTTTA | 0.0184 |
| CGTGTGTA | -0.0759 |
| GTCGAGTA | -0.0695 |
| AACGCGAA | -0.0613 |
| GTTAGACA | -0.0341 |
| AGTGAGTA | -0.235 |
| ACGCCGCC | 0.41 |
| GCCTTGAC | 0.00816 |
| AAGTAACA | -0.0849 |
| AAAAAGGT | -0.0765 |
| ACTACGAG | -0.124 |
| CCGCTGAA | 0.139 |
| CCTGCTCA | -0.271 |
| TATTTGAA | 0.0374 |

| Sequence | PBM E-score |
| --- | --- |
| CCAACACA | -0.162 |
| ATTGAAGC | -0.05 |
| AATCGCAT | 0.00135 |
| AAGGTCTA | -0.0822 |
| ACTCATAC | -0.0801 |
| CTTAGACA | -0.218 |
| CCAGCGGC | 0.232 |
| CTAGTAGC | 0.00336 |
| CCTTAGCG | 0.0261 |
| GCCCAGAA | -0.237 |
| ACAAACGA | -0.0687 |
| TCAGTGGA | -0.115 |
| CCAGCCGG | 0.114 |
| TCAAAAAA | -0.0615 |
| AGTGATAG | -0.156 |
| TGCACGAA | -0.0322 |
| ACTGTTAT | -0.0687 |
| AAGTAACT | -0.0859 |
| ATCTGCAT | -0.0951 |
| GCCTCACA | -0.212 |
| CGAGTTGC | -0.202 |
| ATCGACCG | 0.0775 |
| CGAGAAGA | -0.0708 |

| Sequence | PBM E-score |
| --- | --- |
| CGAAATCA | -0.00127 |
| CTGGGCGA | -0.227 |
| AAGGCGAT | -0.153 |
| ATCGCGAA | 0.0839 |
| AATTGAAA | -0.198 |
| TGTAGTAA | 0.0797 |
| CATCATTC | -0.235 |
| ATGTGAAG | -0.279 |
| GATAATCA | 0.00974 |
| CACTGAGG | -0.0119 |
| ATTCTGAC | -0.0459 |
| CCAGAATC | -0.226 |
| GCTCTAAC | 0.12 |
| CAGAAGTA | -0.225 |
| CTCGGCTC | -0.134 |
| GCAGCCAA | -0.121 |
| CATGGGGC | -0.0578 |
| ATGAGTGA | -0.308 |
| AGGTAAGC | -0.0785 |
| TCAACCCA | -0.246 |
| GAGCTAGC | -0.0911 |
| AAGATGAG | -0.235 |
| CCAAGGGG | -0.0613 |

| Sequence | PBM E-score |
| --- | --- |
| GATAGTGA | -0.148 |
| CTCGCTAC | -0.246 |
| GAGCCATA | -0.0923 |
| AAACCATA | 0.0549 |
| AAGAGCAC | -0.291 |
| CCACGCGA | -0.147 |
| CGTGTCGC | 0.189 |
| ACAGTCAG | -0.211 |
| CACCAACC | 0.0164 |
| ACAATTAA | 0.0893 |
| AGAAGCGA | -0.0959 |
| CAATCAGA | -0.107 |
| CACACTGG | -0.272 |
| AACACTTA | -0.0638 |
| GCGAAAAC | 0.0296 |
| CATGGATA | -0.179 |
| AATAACGT | 0.00055 |
| ATAACAGG | -0.106 |
| CGGGAGTC | 0.0682 |
| CGTTAACA | 0.0835 |
| ATTATACC | 0.362 |
| TAGCCAAA | 0.0668 |
| ATATTGCA | 0.0355 |

| Sequence | PBM E-score |
| --- | --- |
| CTCTAGTC | -0.0558 |
| TGACCCAA | -0.217 |
| AGTGCATG | -0.113 |
| ATATCGCC | 0.344 |
| GCCTTCAA | -0.157 |
| ACTTTCAC | -0.00245 |
| CAACCGTC | -0.0245 |
| CCTAGCGC | -0.00644 |
| AACACACT | -0.219 |
| ACAAAGCT | -0.113 |
| AATAGTAG | -0.00307 |
| GTTTGATA | -0.0162 |
| CGCAATTA | 0.313 |
| AAAGTACG | 0.00248 |
| GTCATACA | -0.102 |
| ACACATTA | -0.179 |
| ACGCATAA | 0.045 |
| GGCCCTCA | -0.0732 |
| AGCCCTGG | -0.164 |
| GCCACTAC | -0.00756 |
| AGTCGGAG | 0.302 |
| GGCACGTA | -0.0354 |
| GCAACGGC | 0.218 |

| Sequence | PBM E-score |
| --- | --- |
| CTTTCGAC | -0.148 |
| ATACGGGG | 0.232 |
| ATCAGAAC | -0.0619 |
| AAACTGGC | -0.109 |
| AGCTGGCA | -0.361 |
| AGGGGGTA | -0.124 |
| CCTTGCGA | -0.136 |
| AGGCGTGG | -0.271 |
| AACCAGTC | -0.048 |
| CCAAGCAG | -0.122 |
| AACTAGCG | 0.132 |
| AATCTGTG | -0.207 |
| AGACGGCG | 0.163 |
| CTCATGAC | 0.0141 |
| AGTATCAT | -0.00028 |
| AGTCTTTA | -0.186 |
| ACGCACAT | 0.00313 |
| ATAGATAG | -0.12 |
| TACGGGCA | 0.143 |
| CTCGCGAC | -0.0342 |
| CCAAGACA | -0.283 |
| CTTGACTA | -0.193 |
| AGCTGGAA | -0.172 |
